Assay results: the supplement of paper PMC12217912
Some of the results follow. The full chains were built here from the parent and the listed change. Inactive controls read about 0.05.

B1: TEV protease; numbered along this chain (parent)
chain: MGESLFKGPRDYNPISSSICHLTNESDGHTTSLYGIGFGPFIITNKHLFRRNNGTLVVQSLHGVFKVKDTTTLQQHLVDGRDMIIIRMPKDFPPFPQKLKFREPQREERICLVTTNFQTKSMSSMVSDTSCTFPSGDGIFWKHWIQTKDGQCGSPLVSTRDGFIVGIHSASNFTNTNNYFTSVPKNFMELLTNQEAQQWVSGWRLNADSVLWGGHKVFMVKPEEPFQPVKEATQL

Variants of: B1
Experiment: raw area under fraction-flipped curve 0-4 h after induction (AUC4h, not background-subtracted), DNA-recorder readout of cleavage of the substrate (dimensionless); higher = more cleavage of the substrate by the protease variant
Settings: temperature: 34 °C; time window: 0-4 h after rhamnose induction
Procedure: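 In vivo DNA recorder in E. coli TOP10(DE3) ΔrhaA at 34 °C. Each TEVp single-site mutant (parent TEVp 0) is paired with a single-site variant of the 7-mer TEVs (canonical ENLYFQ|S). The substrate sits between flexible linkers in a Bxb1-sfGFP-TEVs-SsrA fusion, so cleavage stabilises Bxb1 and speeds flipping of a recombination array, read by NGS. The value is the raw area under the fraction-flipped curve over 0-4 h after rhamnose induction (AUC4h), with ≥20 reads per time point. It is not background-subtracted; inactive controls average about 0.047.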
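Further: Bxb1 expression induced with 0.2% (w/v) L-rhamnose at OD600 near 0.5, cultures sampled hourly, flipped fraction per protease–substrate barcode pair counted by paired-end Illumina sequencing.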

Row | Variant | area with substrate ENAYFQS | area with substrate ENCYFQS | area with substrate ENDYFQS | area with substrate ENEYFQS | area with substrate ENFYFQS | area with substrate ENIYFQS | area with substrate ENKYFQS | area with substrate ENMYFQS | area with substrate ENNYFQS | area with substrate ENQYFQS | area with substrate ENSYFQS | area with substrate ENVYFQS | area with substrate ENWYFQS | area with substrate ENYYFQS | area with substrate ENHYFQS | area with substrate ENPYFQS | area with substrate ENTYFQS | area with substrate ENGYFQS | area with substrate ENRYFQS
1 | I42Q | 0.0418 | 0.0507 | 0.0284 | 0.0438 | 0.046 | 0.0409 | 0.0494 | 0.0414 | 0.0424 | 0.0432 | 0.0427 | 0.0436 | 0.0286 | 0.0476 | – | – | – | – | –
2 | F38N | 0.054 | – | 0.0579 | 0.0511 | – | 0.0503 | – | 0.0645 | 0.0452 | 0.0559 | 0.056 | 0.067 | – | – | 0.059 | 0.0528 | 0.0496 | – | –
3 | F38G | 0.0513 | 0.0595 | 0.0402 | 0.0545 | – | – | 0.0395 | – | – | 0.0403 | – | – | – | – | – | 0.0455 | 0.0409 | – | –
4 | F38T | 0.054 | 0.0499 | 0.0602 | 0.0606 | 0.0571 | 0.0907 | 0.059 | – | 0.0631 | 0.0543 | 0.0689 | 0.0712 | 0.0576 | 0.0647 | 0.0555 | 0.0663 | – | 0.0549 | 0.0525
5 | F41T | 0.0649 | – | – | 0.0584 | – | – | 0.0595 | – | – | 0.0553 | 0.0645 | 0.0776 | 0.0455 | 0.0574 | 0.0519 | – | 0.0584 | – | –
6 | I43G | 0.0512 | 0.0609 | 0.0553 | 0.0515 | 0.0559 | – | 0.0431 | – | 0.0553 | 0.0446 | – | – | – | 0.0619 | 0.0419 | 0.0467 | 0.0306 | 0.0445 | 0.0409
7 | I43F | 0.0534 | – | 0.0664 | 0.0565 | 0.048 | 0.0823 | 0.0533 | – | 0.0596 | 0.0557 | 0.064 | 0.0655 | – | 0.0715 | 0.0606 | – | 0.0539 | 0.0933 | 0.0618
8 | I43W | 0.0554 | 0.0528 | 0.0497 | 0.0433 | – | – | 0.0407 | 0.0363 | 0.0647 | 0.0378 | 0.0515 | 0.044 | – | 0.0379 | 0.0596 | 0.0401 | 0.0533 | – | 0.053
9 | T31D | 0.0531 | 0.0441 | 0.0693 | 0.0536 | 0.0476 | 0.108 | 0.0676 | 0.104 | 0.058 | 0.067 | 0.076 | 0.0798 | 0.0621 | 0.0669 | 0.0405 | – | 0.0716 | – | –
10 | T31S | 0.057 | 0.0473 | 0.0633 | 0.0518 | 0.0559 | 0.0706 | 0.0563 | – | 0.0676 | 0.0555 | 0.0571 | 0.0541 | 0.0095 | 0.0503 | 0.053 | 0.0587 | 0.067 | 0.0606 | –
11 | T31K | 0.0544 | 0.0617 | 0.0598 | – | 0.0619 | 0.0558 | – | 0.0613 | 0.0573 | 0.0612 | 0.0566 | 0.0642 | 0.0595 | 0.0638 | – | 0.0551 | 0.0858 | 0.0548 | –
12 | T31N | 0.0569 | 0.0633 | 0.0619 | 0.061 | 0.0511 | 0.135 | 0.0613 | 0.0844 | 0.0532 | 0.0668 | 0.0589 | 0.0647 | – | 0.0581 | 0.0509 | – | 0.0589 | 0.0723 | 0.0571
13 | G39C | 0.0315 | – | 0.0473 | 0.0349 | 0.0373 | 0.0437 | 0.0428 | 0.0436 | – | 0.0459 | 0.0149 | – | – | – | 0.0351 | – | 0.0622 | 0.0441 | 0.046
14 | G39N | 0.0463 | 0.0477 | 0.0345 | 0.0352 | 0.0442 | – | – | – | 0.0393 | 0.0336 | – | 0.0382 | – | 0.036 | 0.0408 | 0.0619 | 0.022 | 0.0351 | 0.0568
15 | G39H | 0.0393 | 0.0385 | 0.048 | 0.049 | 0.0503 | – | 0.0421 | 0.0534 | 0.0386 | 0.0554 | 0.0528 | 0.0428 | 0.0292 | 0.0477 | 0.0587 | 0.0515 | 0.0378 | 0.0404 | 0.0401
16 | T30Q | 0.0637 | – | 0.042 | 0.0533 | 0.0612 | 0.115 | 0.0633 | 0.0865 | – | – | 0.0589 | 0.0711 | – | – | 0.0512 | – | 0.0671 | 0.0595 | 0.0518
17 | G35W | 0.0651 | 0.049 | 0.052 | – | – | 0.0477 | – | 0.0191 | 0.0413 | – | 0.0525 | 0.0344 | – | 0.0503 | 0.0378 | – | 0.0591 | – | –
18 | G37V | 0.0524 | 0.0663 | 0.0651 | 0.0469 | 0.0546 | 0.0773 | – | 0.075 | 0.0811 | 0.0581 | 0.0632 | 0.0747 | 0.0665 | – | 0.0535 | – | 0.0594 | 0.0566 | 0.0514
19 | G37M | 0.0731 | 0.045 | 0.0571 | 0.0462 | 0 | – | – | 0.058 | 0.0529 | 0.056 | – | – | 0.0387 | – | – | 0.0571 | – | 0.0549 | 0.0523
20 | P40Y | 0.0661 | 0.078 | 0.056 | 0.0621 | 0.0604 | – | 0.0534 | – | 0.0688 | 0.0488 | 0.0521 | 0.0723 | 0.0602 | 0.0639 | 0.061 | 0.0574 | – | – | 0.0657
21 | T44G | 0.0461 | 0.0407 | 0.0848 | 0.0573 | – | – | 0.0596 | 0.0626 | 0.0667 | 0.0383 | 0.0883 | 0.0338 | – | – | – | 0.0279 | 0.0617 | 0.0201 | 0.0551
22 | T44E | 0.0272 | – | 0.0473 | 0.05 | 0.065 | – | – | 0.0368 | 0.0447 | 0.0289 | 0.057 | – | 0.0375 | 0.0431 | 0.0315 | 0.0295 | – | 0.0463 | 0.0503
23 | I36F | 0.0634 | 0.052 | 0.0581 | 0.0601 | – | – | 0.0702 | – | 0.0623 | 0.0581 | 0.0499 | 0.0341 | 0.0344 | – | 0.0738 | – | 0.0629 | 0.0673 | 0.0492
24 | I36Q | 0.0599 | – | 0.063 | – | – | 0.069 | 0.05 | 0.0476 | – | 0.0423 | 0.0726 | 0.0482 | – | 0.051 | 0.056 | 0.0479 | 0.0304 | 0.0556 | 0.0525
25 | L33W | 0.0647 | 0.0642 | 0.0556 | 0.069 | 0.0696 | 0.048 | 0.0598 | 0.0587 | 0.0627 | 0.0547 | 0.0585 | 0.0551 | – | 0.062 | 0.0816 | 0.0631 | 0.0593 | 0.0559 | 0.0954
